Results: PMC12136788
The other results are listed elsewhere or left out.

T1: UNK ZnF1-6 (called full-length) (human, UniProt Q9C0B0 30-357)
T1 sequence: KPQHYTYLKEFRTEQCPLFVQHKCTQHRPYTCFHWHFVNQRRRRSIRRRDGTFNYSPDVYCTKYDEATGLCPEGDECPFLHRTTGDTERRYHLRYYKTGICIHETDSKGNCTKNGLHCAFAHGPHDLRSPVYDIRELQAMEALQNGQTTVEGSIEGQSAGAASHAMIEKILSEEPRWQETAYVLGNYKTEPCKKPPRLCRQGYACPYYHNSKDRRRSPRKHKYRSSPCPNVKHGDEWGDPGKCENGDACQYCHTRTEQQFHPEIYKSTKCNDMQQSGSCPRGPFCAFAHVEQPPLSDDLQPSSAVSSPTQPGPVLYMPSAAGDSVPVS

B1: chr15:63694043:63694144:-|CDS|ENSG00000103657|unk|FALSE|unique (ssRNA)
RNA: GGGAGUUCUACAGUCCGACGAUCAGGACCUAUGCUGAUAAACUGAGUCCCAAAGUAGUUCAAUCCUUGUUGGAUCUACUCUGUAGUCAGUUGAAGAAUUUAUUGUCCCAAACUGGUGUACUACAUAUGGCCUCUUUCGGAGAACAACAGAGGAUUGAGCAUCA
B2: ENSG00000169908:stop:overlap|stop_codon|ENSG00000169908|stop_codon|NA|stop_codon (ssRNA)
RNA: GGGAGUUCUACAGUCCGACGAUCGAGGCAUAUGUGGCUUUUGCUGCUCUCACCAACAGGUAAGAACCUGCAUGAAAAUGUCGUAGUCUGGCCCUGGUGUUAAUAUACCAUUGUUUUCAUCAUAAAGAAAAAGGCAAAACCAAACAACAGAGGAUUGAGCAUCA
B3: chr2:134980819:134981518:-|CDS|ENSG00000176601|control|control|control (ssRNA)
RNA: GGGAGUUCUACAGUCCGACGAUCUGCUUGCAAGAGAACACUGUGAGCAUUUUCAUGGAGUUUGUUCCUGGUGGCUCAAUCUCUAGUAUUAUAAACCGUUUUGGGCCAUUGCCUGAGAUGGUGUUCUGUAAAUAUACGAAACAACAACAGAGGAUUGAGCAUCA
B4: chrX:117909842:117909960:-|CDS|ENSG00000003096|unk|FALSE|unique (ssRNA)
RNA: GGGAGUUCUACAGUCCGACGAUCAGCACAGGGGAGUUCUUGAAACUCCCUUUUGAGCGUCUUGCCUUCGUGCUUUCCAGUAAUAGCCUUAAGCACUGUACUGAACUUGAGCUCUUUAAGGCUACCUGUCGUUGGCUUCGCCUGCAACAGAGGAUUGAGCAUCA
B5: chr1:91680342:91683857:-|three_prime_utr|ENSG00000069702|control|control|control (ssRNA)
RNA: GGGAGUUCUACAGUCCGACGAUCGUGCUGCCCACAGCAUCGGCAGCACGCAGAGCACGCCUUGCUCCAGCAGCAGCACGGCCUAGCCCAACCCAGCCCAACCCGGCCCAACCCAGCCCAGCCCAGCUCAGCUCAGCUACUGCCCAACAGAGGAUUGAGCAUCA
B6: ENSG00000107863:be:win_1301|CDS|ENSG00000107863|bound_else_gene|NA|bound_elsewhere_windowed (ssRNA)
RNA: GGGAGUUCUACAGUCCGACGAUCCUUUGCAGGGACGACGUCGAAGCACCUCUCAUGAUCGAGUGCCCCAGUCUGUCCAGAUACGGCAACGCAGUGUGUCCCAAGAAAGACUGGAAGAUUCUGUGCUAAUGAAGUAUUGUCCAACAACAGAGGAUUGAGCAUCA
B7: chr22:20819776:20819877:-|CDS|ENSG00000241973|unk|FALSE|unique (ssRNA)
RNA: GGGAGUUCUACAGUCCGACGAUCUGUAACGUUUUCACUUGAUCUUCUAGAAUACCUUUGCAAGUAUGCUAUCCCAUGCCUGAUAGGAAUCUCGCGAGCAUUUGGGCGUUACAGCAACAUGGAAGAGUCUCUCCUCUCAAAGCUCAACAGAGGAUUGAGCAUCA
B8: chr6:89938216:89938327:-|CDS|ENSG00000112182|unk|FALSE|unique (ssRNA)
RNA: GGGAGUUCUACAGUCCGACGAUCUCUUCCAAGGAACGAUUUCCAGAUGAUGAUUAAAAUGCACAAGCUAACCUCAGAACAGUUAGAGUUUAUUCAUGAUGUCCGACGGCGCAGCAAGAACCGCAUCGCGGCCCAGCGCUGCCGCAACAGAGGAUUGAGCAUCA
B9: chr20:13714314:13714426:-|3pUTR|ENSG00000089048|unk|total|mutant (ssRNA)
RNA: GGGAGUUCUACAGUCCGACGAUCUUUUUCCCGCCAUAAAGGAUGGAAGUCAAGAACUUUUUGUUGUUCCGUCAUGUUAAGUACCGUUUAUGAAAUUAACUUGUAAAUAAAAGUGUAAAAUAUUUUCAUUAUUUUGUACCGCACCAACAGAGGAUUGAGCAUCA
B10: chr7:77627539:77627665:+|CDS|ENSG00000127947|unk|FALSE|bound_elsewhere (ssRNA)
RNA: GGGAGUUCUACAGUCCGACGAUCAAUAUUUCAACAGCAAGUGCCACAGUUUCUGCUGCCACUAGUACUGAAAGCAUUUCUACUAGGAAAGUAUUGCCAAUGUCCAUUGCUAGACAUAAUAUAGCAGGAACAACACAUUCAGGUCAACAGAGGAUUGAGCAUCA
B11: chr11:75562225:75562326:+|5pUTR|ENSG00000149257|msi1|total|mutant (ssRNA)
RNA: GGGAGUUCUACAGUCCGACGAUCGCAGGAGGGGGUGGGGACUGCCAUAUACCGAUCCCGGGAGCAGGGGAGCGGGCUAAGAGCCGAAUCGUGUCGCGGCUCGAGAGCGAGAGUCACGUCCCGGCGCCCGCCCAGCCCGACCCACAACAGAGGAUUGAGCAUCA
B12: chr2:74529670:74529771:-|5pUTR|ENSG00000115307|unk|FALSE|unique (ssRNA)
RNA: GGGAGUUCUACAGUCCGACGAUCUCUCCGCCGGACGCGAGUUGUGAGACGGCCCAAGGGGCCGCGGGGUAUGCUGGGACCGCUAGCCCUUCCGGCGCGCCUCAGGACUUCGGGUCCCCUCACCCCGGGCGGAUGCCCAAAGACCAACAGAGGAUUGAGCAUCA
B13: chr17:44319658:44319728:-|3pUTR|ENSG00000013306|msi1_unk|FALSE|overlapping (ssRNA)
RNA: GGGAGUUCUACAGUCCGACGAUCUCCCUGUGUUUGCUGUAGCUGGGCAUGUCUCCAGGAACCAAGAAGCCCUCAGCCUGGUGUAGUCUCCCUGACCCUUGUUAAUUCCUUAAGUCUAAAGAUGAUGAACUUCUGCCUGGUGCCCAACAGAGGAUUGAGCAUCA
B14: chr7:73478007:73478118:-|CDS|ENSG00000009954|unk|FALSE|unique (ssRNA)
RNA: GGGAGUUCUACAGUCCGACGAUCAAAGGCACGCAGAAGAUGACACGAGCCCCACGGAAUUCUGGGGGUACACCUAGGACCUCUAGUAAACCUCAUAAACAUCUGCCUCCUGCAGCCCUACACCUCAUUGCAUACUACAAAGAACAACAGAGGAUUGAGCAUCA

Each binder was assayed against T1, UNK ZnF1-6 (called full-length) (assay: nsRBNS (natural sequence RNA bind-n-seq); RBNS binding buffer (assumed for nsRBNS): 25 mM Tris pH 7.5, 150 mM KCl, 3 mM MgCl2, 0.01% Triton X-100, 500 ug/ml BSA, 20 U/ml SUPERase-In, 4 C; UNK is unkempt and MSI1 is Musashi-1; names of the RNAs are library labels; protein concentration not given here; high values mean tight binding).
B1 showed a binding signal of 0.292 enrichment R.
For B2, the binding signal was 0.408 enrichment R.
B3 gave a binding signal of 0.812 enrichment R.
B4 gave a binding signal of 0.41 enrichment R.
Work on B5 yielded a binding signal of 1.06 enrichment R.
Work on B6 yielded a binding signal of 0.453 enrichment R.
B7 gave a binding signal of 0.38 enrichment R.
Work on B8 yielded a binding signal of 0.536 enrichment R.
B9 gave a binding signal of 0.526 enrichment R.
B10 was tested, and the binding signal was 0.403 enrichment R.
In the case of B11, the binding signal is reported as 0.838 enrichment R.
B12 gave a binding signal of 0.542 enrichment R.
B13 showed a binding signal of 1.52 enrichment R.
B14 showed a binding signal of 0.695 enrichment R.
